The list shows a part of the results. Sequences were assembled here from the parent chain. Inactive controls read about 0.05.
B1: TEV protease; numbered along this chain (parent)
chain: MGESLFKGPRDYNPISSSICHLTNESDGHTTSLYGIGFGPFIITNKHLFRRNNGTLVVQSLHGVFKVKDTTTLQQHLVDGRDMIIIRMPKDFPPFPQKLKFREPQREERICLVTTNFQTKSMSSMVSDTSCTFPSGDGIFWKHWIQTKDGQCGSPLVSTRDGFIVGIHSASNFTNTNNYFTSVPKNFMELLTNQEAQQWVSGWRLNADSVLWGGHKVFMVKPEEPFQPVKEATQL

Variants of: B1
Assay: raw area under fraction-flipped curve 0-4 h after induction (AUC4h, not background-subtracted), DNA-recorder readout of cleavage of the substrate (dimensionless); higher = more cleavage of the substrate by the protease variant
Conditions: temperature: 34 °C; time window: 0-4 h after rhamnose induction
Description: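 In vivo DNA recorder in E. coli TOP10(DE3) ΔrhaA at 34 °C. Each TEVp single-site mutant (parent TEVp 0) is paired with a single-site variant of the 7-mer TEVs (canonical ENLYFQ|S). The substrate sits between flexible linkers in a Bxb1-sfGFP-TEVs-SsrA fusion, so cleavage stabilises Bxb1 and speeds flipping of a recombination array, read by NGS. The value is the raw area under the fraction-flipped curve over 0-4 h after rhamnose induction (AUC4h), with ≥20 reads per time point. It is not background-subtracted; inactive controls average about 0.047.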
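Also: Bxb1 expression induced with 0.2% (w/v) L-rhamnose at OD600 near 0.5, cultures sampled hourly, flipped fraction per protease–substrate barcode pair counted by paired-end Illumina sequencing.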

| Variant | area with substrate CNLYFQS | area with substrate HNLYFQS | area with substrate INLYFQS | area with substrate KNLYFQS | area with substrate LNLYFQS | area with substrate PNLYFQS | area with substrate SNLYFQS | area with substrate TNLYFQS | area with substrate VNLYFQS | area with substrate WNLYFQS | area with substrate YNLYFQS | area with substrate FNLYFQS | area with substrate GNLYFQS | area with substrate MNLYFQS | area with substrate NNLYFQS | area with substrate QNLYFQS |
| --- | --- | --- | --- | --- | --- | --- | --- | --- | --- | --- | --- | --- | --- | --- | --- | --- |
| S4Q | 0.0727 | 0.0648 | 0.033 | 0.0777 | 0.056 | 0.0612 | 0.0599 | 0.058 | 0.0643 | 0.0546 | 0.0674 | – | – | – | – | – |
| H47Q | 0.0621 | 0.0618 | – | 0.0927 | 0.0616 | 0.0646 | 0.0577 | 0.0577 | 0.0646 | 0.0653 | – | 0.0517 | 0.0664 | – | – | – |
| I15T | 0.0748 | 0.0661 | 0.0686 | 0.0721 | 0.0642 | 0.0633 | 0.0602 | 0.0574 | 0.0645 | 0.0559 | – | 0.0634 | 0.0627 | 0.0591 | 0.0586 | – |
| I43Y | 0.0369 | 0.0505 | 0.0512 | – | – | 0.0506 | – | 0.05 | – | 0.044 | 0.0508 | – | 0.0511 | 0.0551 | – | 0.0739 |
| P14L | 0.102 | 0.0628 | – | 0.0734 | 0.0643 | 0.0656 | 0.0772 | 0.0683 | 0.0585 | 0.0592 | – | 0.0675 | 0.0636 | 0.0826 | 0.0646 | – |
| F49W | 0.069 | 0.0598 | 0.0495 | 0.0561 | 0.0607 | 0.061 | 0.0714 | 0.0686 | 0.0652 | 0.055 | 0.0606 | – | 0.0435 | 0.0723 | 0.0536 | 0.0545 |
| D11C | 0.0669 | 0.0619 | 0.0608 | 0.0793 | 0.0692 | 0.0625 | 0.0702 | 0.0654 | – | 0.0666 | 0.056 | 0.0488 | 0.0705 | – | – | – |
| R50G | 0.0552 | 0.0514 | 0.0633 | 0.0766 | 0.0665 | 0.0597 | – | 0.0638 | 0.0763 | 0.0509 | – | 0.0591 | – | – | – | – |
| R50I | 0.0681 | – | 0.066 | 0.0573 | – | – | 0.0707 | 0.0634 | – | – | – | – | – | – | 0.0587 | – |
| R50M | 0.0827 | 0.0839 | 0.0627 | 0.0712 | – | – | – | 0.0677 | 0.0265 | 0.0623 | 0.0454 | 0.0603 | – | – | – | – |
| N52E | 0.0601 | 0.0557 | 0.0587 | 0.0659 | – | – | 0.0571 | – | – | 0.0575 | – | – | – | 0.0654 | 0.0537 | – |
| N52A | 0.0632 | 0.0589 | – | 0.087 | – | – | – | – | 0.062 | – | 0.0552 | 0.0651 | 0.0621 | – | 0.0827 | – |
| N52L | 0.0571 | – | – | 0.061 | 0.0494 | 0.0455 | 0.0637 | 0.0572 | – | 0.0533 | 0.0558 | 0.0518 | – | 0.0569 | 0.0494 | – |
| K7L | 0.0597 | 0.0708 | – | 0.0439 | 0.0568 | 0.0567 | – | 0.0707 | – | 0.048 | 0.0702 | – | – | 0.066 | – | – |
| K7G | 0.0659 | – | 0.0731 | 0.0472 | – | 0.0738 | 0.0914 | 0.0615 | 0.0653 | 0.0494 | 0.0447 | 0.0592 | – | 0.0605 | – | – |
| G2L | 0.0699 | 0.0675 | – | – | 0.065 | – | – | 0.0638 | 0.0703 | 0.0574 | – | 0.0587 | – | 0.0765 | – | 0.0738 |
